{"source": "the supplement of paper PMC8728848", "binders": {"B1": {"name": "SP16665A-bot-344-23-344 (Bacteroides ovatus) (protein)", "chain": "SDNEFPDFDYQTVYFANQYGLRTIELGESEFVDNTLDNQHKMVIKAAWGGGYTNRNNVVINFKVDESLCDNLYFKDTDQPLVPMPASYYTLASDRIAIPKGQIMAGVEVQLTDDFFADEKSISENYVIPLLMTNVQGADSILQGKPVVENPVLTNAGDWSILPQNFVLYAVKYVNPWHGEYLRRGIDHATVAGTSKDIIRHEQFVENDEVVNISTKSMKDNLLTLKTKDESGKDISYTVRLSFAEDGSCTVHSGSQNVVVSGSGKFVSKGEKNSLGGKDRNAIYLDYTVNLTDNNIQLATKDTLVLRTRNVYGGKSLEVVRK"}}, "assay_in_all_cases": "glycan array binding signal (z-score within array); higher = stronger binding", "settings_in_all_cases": "glycan notation: IUPAC condensed, linker removed", "key": {"[1]": {"biological_target": "Neu5Ac(a2-3)Gal(b1-3)[Fuc(a1-4)]GlcNAc", "procedure,_shortened": "(§1)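 The binding signal is a Z-score computed within each array. Data were drawn from 3228 arrays in the Consortium for Functional Glycomics database, restricted to those with a known protein sequence. Scores were averaged over arrays of the same protein sequence at different concentrations or buffers, and over linkers, and negative values can be taken as non-binding.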"}, "[2]": {"biological_target": "Neu5Ac(a2-3)Gal(b1-3)[Fuc(a1-4)]GlcNAc(b1-3)Gal(b1-3)[Fuc(a1-4)]GlcNAc", "procedure,_shortened": "as §1"}, "[3]": {"biological_target": "Neu5Ac(a2-3)Gal(b1-3)[Fuc(a1-4)]GlcNAc(b1-3)Gal(b1-4)[Fuc(a1-3)]GlcNAc", "procedure,_shortened": "as §1"}, "[4]": {"biological_target": "Neu5Ac(a2-3)Gal(b1-3)[GlcNAc(b1-6)]GalNAc", "procedure,_shortened": "as §1"}, "[5]": {"biological_target": "Neu5Ac(a2-3)Gal(b1-3)[Neu5Ac(a2-6)]GalNAc", "procedure,_shortened": "as §1"}, "[6]": {"biological_target": "Neu5Ac(a2-3)Gal(b1-3)[Neu5Ac(a2-6)]GlcNAc(b1-3)[Fuc(a1-3)[Gal(b1-4)]GlcNAc(b1-6)]Gal(b1-4)Glc", "procedure,_shortened": "as §1"}, "[7]": {"biological_target": "Neu5Ac(a2-3)Gal(b1-3)]Neu5Ac(a2-3)Gal(b1-4)]GlcNAc", "procedure,_shortened": "as §1"}, "Neu5Ac(a2-3)Gal(b1-4)Glc": {"biological_target": "Neu5Ac(a2-3)Gal(b1-4)Glc", "procedure,_shortened": "as §1"}, "[8]": {"biological_target": "Neu5Ac(a2-3)Gal(b1-4)GlcNAc", "procedure,_shortened": "as §1"}, "[9]": {"biological_target": "Neu5Ac(a2-3)Gal(b1-4)GlcNAc(b1-2)Man", "procedure,_shortened": "as §1"}, "[10]": {"biological_target": "Neu5Ac(a2-3)Gal(b1-4)GlcNAc(b1-2)Man(a1-3)[GlcNAc(b1-4)][Neu5Ac(a2-3)Gal(b1-4)GlcNAc(b1-2)Man(a1-6)]Man(b1-4)GlcNAc(b1-4)GlcNAc", "procedure,_shortened": "as §1"}, "[11]": {"biological_target": "Neu5Ac(a2-3)Gal(b1-4)GlcNAc(b1-2)Man(a1-3)[Neu5Ac(a2-3)Gal(b1-4)GlcNAc(b1-2)Man(a1-6)]Man(b1-4)GlcNAc(b1-4)GlcNAc", "procedure,_shortened": "as §1"}, "[12]": {"biological_target": "Neu5Ac(a2-3)Gal(b1-4)GlcNAc(b1-2)Man(a1-3)[Neu5Ac(a2-3)Gal(b1-4)GlcNAc(b1-2)Man(a1-6)]Man(b1-4)GlcNAc(b1-4)[Fuc(a1-6)]GlcNAc", "procedure,_shortened": "as §1"}, "[13]": {"biological_target": "Neu5Ac(a2-3)Gal(b1-4)GlcNAc(b1-2)Man(a1-3)[Neu5Ac(a2-6)Gal(b1-4)GlcNAc(b1-2)Man(a1-6)]Man(b1-4)GlcNAc(b1-4)GlcNAc", "procedure,_shortened": "as §1"}, "[14]": {"biological_target": "Neu5Ac(a2-3)Gal(b1-4)GlcNAc(b1-2)[Neu5Ac(a2-3)Gal(b1-4)GlcNAc(b1-4)]Man(a1-3)[GlcNAc(b1-4)][Neu5Ac(a2-3)Gal(b1-4)GlcNAc(b1-2)[Neu5Ac(a2-3)Gal(b1-4)GlcNAc(b1-6)]Man(a1-6)]Man(b1-4)GlcNAc(b1-4)GlcNAc", "procedure,_shortened": "as §1"}, "[15]": {"biological_target": "Neu5Ac(a2-3)Gal(b1-4)GlcNAc(b1-2)[Neu5Ac(a2-3)Gal(b1-4)GlcNAc(b1-4)]Man(a1-3)[GlcNAc(b1-4)][Neu5Ac(a2-3)Gal(b1-4)GlcNAc(b1-4)Man(a1-6)]Man(b1-4)GlcNAc(b1-4)GlcNAc", "procedure,_shortened": "as §1"}, "[16]": {"biological_target": "Neu5Ac(a2-3)Gal(b1-4)GlcNAc(b1-2)[Neu5Ac(a2-3)Gal(b1-4)GlcNAc(b1-6)]Man(a1-6)[Neu5Ac(a2-3)Gal(b1-4)GlcNAc(b1-2)Man(a1-3)]Man(b1-4)GlcNAc(b1-4)GlcNAc", "procedure,_shortened": "as §1"}, "[17]": {"biological_target": "Neu5Ac(a2-3)Gal(b1-4)GlcNAc(b1-2)[Neu5Ac(a2-3)Gal(b1-4)GlcNAc(b1-6)]Man(a1-6)[Neu5Ac(a2-3)Gal(b1-4)GlcNAc(b1-2)Man(a1-3)][GlcNAc(b1-4)]Man(b1-4)GlcNAc(b1-4)GlcNAc", "procedure,_shortened": "as §1"}, "[18]": {"biological_target": "Neu5Ac(a2-3)Gal(b1-4)GlcNAc(b1-3)Gal", "procedure,_shortened": "as §1"}, "[19]": {"biological_target": "Neu5Ac(a2-3)Gal(b1-4)GlcNAc(b1-3)Gal(b1-3)GlcNAc", "procedure,_shortened": "as §1"}, "[20]": {"biological_target": "Neu5Ac(a2-3)Gal(b1-4)GlcNAc(b1-3)Gal(b1-4)GlcNAc", "procedure,_shortened": "as §1"}, "[21]": {"biological_target": "Neu5Ac(a2-3)Gal(b1-4)GlcNAc(b1-3)Gal(b1-4)GlcNAc(b1-2)Man(a1-3)[Neu5Ac(a2-3)Gal(b1-4)GlcNAc(b1-3)Gal(b1-4)GlcNAc(b1-2)Man(a1-6)]Man(b1-4)GlcNAc(b1-4)GlcNAc", "procedure,_shortened": "as §1"}, "[22]": {"biological_target": "Neu5Ac(a2-3)Gal(b1-4)GlcNAc(b1-3)Gal(b1-4)GlcNAc(b1-3)Gal(b1-4)GlcNAc", "procedure,_shortened": "as §1"}, "[23]": {"biological_target": "Neu5Ac(a2-3)Gal(b1-4)GlcNAc(b1-3)Gal(b1-4)GlcNAc(b1-3)Gal(b1-4)GlcNAc(b1-2)Man(a1-3)[Neu5Ac(a2-3)Gal(b1-4)GlcNAc(b1-3)Gal(b1-4)GlcNAc(b1-3)Gal(b1-4)GlcNAc(b1-2)Man(a1-6)]GalNAc", "procedure,_shortened": "as §1"}, "[24]": {"biological_target": "Neu5Ac(a2-3)Gal(b1-4)GlcNAc(b1-3)Gal(b1-4)GlcNAc(b1-3)GalNAc", "procedure,_shortened": "as §1"}, "[25]": {"biological_target": "Neu5Ac(a2-3)Gal(b1-4)GlcNAc(b1-3)Gal(b1-4)GlcNAc(b1-3)[Neu5Ac(a2-3)Gal(b1-4)GlcNAc(b1-3)Gal(b1-4)GlcNAc(b1-6)]GalNAc", "procedure,_shortened": "as §1"}, "[26]": {"biological_target": "Neu5Ac(a2-3)Gal(b1-4)GlcNAc(b1-3)Gal(b1-4)GlcNAc(b1-6)[Gal(b1-3)]GalNAc", "procedure,_shortened": "as §1"}, "[27]": {"biological_target": "Neu5Ac(a2-3)Gal(b1-4)GlcNAc(b1-3)Gal(b1-4)[Fuc(a1-3)]GlcNAc", "procedure,_shortened": "as §1"}, "[28]": {"biological_target": "Neu5Ac(a2-3)Gal(b1-4)GlcNAc(b1-3)GalNAc", "procedure,_shortened": "as §1"}, "[29]": {"biological_target": "Neu5Ac(a2-3)Gal(b1-4)GlcNAc(b1-3)[Neu5Ac(a2-3)Gal(b1-4)GlcNAc(b1-6)]GalNAc", "procedure,_shortened": "as §1"}}, "note": "The other results are listed elsewhere or left out.", "data": [{"binder": "B1", "values": [{"measurement": "glycan array binding signal (z-score)", "setting": "[1]", "result": -0.073}, {"measurement": "glycan array binding signal (z-score)", "setting": "[2]", "result": -0.283}, {"measurement": "glycan array binding signal (z-score)", "setting": "[3]", "result": 0.438}, {"measurement": "glycan array binding signal (z-score)", "setting": "[4]", "result": -0.391}, {"measurement": "glycan array binding signal (z-score)", "setting": "[5]", "result": -0.446}, {"measurement": "glycan array binding signal (z-score)", "setting": "[6]", "result": -0.697}, {"measurement": "glycan array binding signal (z-score)", "setting": "[7]", "result": -0.238}, {"measurement": "glycan array binding signal (z-score)", "setting": "Neu5Ac(a2-3)Gal(b1-4)Glc", "result": 0.997}, {"measurement": "glycan array binding signal (z-score)", "setting": "[8]", "result": -0.021}, {"measurement": "glycan array binding signal (z-score)", "setting": "[9]", "result": -0.249}, {"measurement": "glycan array binding signal (z-score)", "setting": "[10]", "result": -0.236}, {"measurement": "glycan array binding signal (z-score)", "setting": "[11]", "result": -0.552}, {"measurement": "glycan array binding signal (z-score)", "setting": "[12]", "result": -0.039}, {"measurement": "glycan array binding signal (z-score)", "setting": "[13]", "result": 0.133}, {"measurement": "glycan array binding signal (z-score)", "setting": "[14]", "result": -0.001}, {"measurement": "glycan array binding signal (z-score)", "setting": "[15]", "result": -0.388}, {"measurement": "glycan array binding signal (z-score)", "setting": "[16]", "result": 0.847}, {"measurement": "glycan array binding signal (z-score)", "setting": "[17]", "result": -0.44}, {"measurement": "glycan array binding signal (z-score)", "setting": "[18]", "result": -0.268}, {"measurement": "glycan array binding signal (z-score)", "setting": "[19]", "result": 0.117}, {"measurement": "glycan array binding signal (z-score)", "setting": "[20]", "result": -0.729}, {"measurement": "glycan array binding signal (z-score)", "setting": "[21]", "result": 0.704}, {"measurement": "glycan array binding signal (z-score)", "setting": "[22]", "result": -0.258}, {"measurement": "glycan array binding signal (z-score)", "setting": "[23]", "result": 0.516}, {"measurement": "glycan array binding signal (z-score)", "setting": "[24]", "result": -0.51}, {"measurement": "glycan array binding signal (z-score)", "setting": "[25]", "result": -0.103}, {"measurement": "glycan array binding signal (z-score)", "setting": "[26]", "result": -0.214}, {"measurement": "glycan array binding signal (z-score)", "setting": "[27]", "result": 0.411}, {"measurement": "glycan array binding signal (z-score)", "setting": "[28]", "result": 0.718}, {"measurement": "glycan array binding signal (z-score)", "setting": "[29]", "result": -0.228}]}]}
